Read counts are not given, so values of variants with three or more changes are uncertain.
B1: LINE1-mini (parent)
chain: GGCAGAGCUCAACACAGCGUGGCAAAGUGGCUGUGGCUAGACUGCC

Variants of: B1
Assay: self-cleavage, relative activity (ratio to wild type); higher = more cleavage; in vitro, sequencing; the parent is a self-cleaving ribozyme
U9A G17C U20A U34A G40A showed a self-cleavage of 0.08.
With U9A G36A C37A U38A C45U C46U the self-cleavage was 0.56.
U9A U28G A41G gave a self-cleavage of 0.07.
With U9C A11G U34G the self-cleavage was 0.02.
Variant C8U C18G G30A has a self-cleavage of 0.09.
For U9A C15G C31U G33U, the self-cleavage was 0.22.
C8U G22C C37U gave a self-cleavage of 0.06.
With U9A G22A A26C G44U the self-cleavage was 0.59.
C8U A16G U32C showed a self-cleavage of 0.02.
C8U G21U A25G C45U gave a self-cleavage of 0.06.
Variant U9C C15U A25U A26U has a self-cleavage of 0.03.
Variant C8U C15G C37U A39C has a self-cleavage of 0.21.
C8U G27A C46A showed a self-cleavage of 0.32.
For U9C C15G G30U, the self-cleavage was 0.03.
With C8U A14C A16C C23A A26U U28C U43C the self-cleavage was 0.22.
Variant U9A A12U G17C A26C has a self-cleavage of 0.06.
Variant U9A A11G G17U A25U has a self-cleavage of 0.01.
Variant U9C A39C C46A has a self-cleavage of 0.03.
C8U C18U C46U gave a self-cleavage of 0.11.
Work on C8U G29U C31U yielded a self-cleavage of 0.07.
In the case of U9C C15U G36U U43G G44U, the self-cleavage is reported as 0.01.
Work on U9C A16U U28A yielded a self-cleavage of 0.02.
Variant U9A A11G A24G C37U C46U has a self-cleavage of 0.01.
U9C A16C C37G gave a self-cleavage of 0.02.
Work on C8U C13G G17U C23G U28A G35U G36C A41U yielded a self-cleavage of 0.07.
In the case of U9A C15U G22U, the self-cleavage is reported as 0.33.
C8U C13G C18A G19U gave a self-cleavage of 0.21.
C8U C13A G22U A41C gave a self-cleavage of 0.14.
Work on U9C C18U C23U U28C U34C G40U G44A yielded a self-cleavage of 0.02.
U9C A16U G17A gave a self-cleavage of 0.02.
U9A C15A C42G showed a self-cleavage of 0.01.
For C8U C18U U32G, the self-cleavage was 0.02.
U9C G17A A24U U28C showed a self-cleavage of 0.04.
C8U U20G A26C showed a self-cleavage of 0.05.
For U9A G22C G33A G44C, the self-cleavage was 0.05.
Variant C8U C10U A12C C37G has a self-cleavage of 0.
Work on U9C C10G A11C U32G yielded a self-cleavage of 0.01.
For C8U A26G A39C A41C, the self-cleavage was 0.04.
U9A C10A U20C showed a self-cleavage of 0.03.
C8U C18A G33U gave a self-cleavage of 0.
U9A A11G G21U A24C gave a self-cleavage of 0.01.
C8U G29A A41U showed a self-cleavage of 0.06.
C8U C10A U38A gave a self-cleavage of 0.02.
U9C A11C U32C G40U gave a self-cleavage of 0.04.
U9A C18U C31U G44U showed a self-cleavage of 0.03.
In the case of C8U A16C G44C, the self-cleavage is reported as 0.12.
U9C A11G G27A G35C C46A gave a self-cleavage of 0.02.
U9A A12U A24G U28A gave a self-cleavage of 0.12.
U9C C13G G33C G44C gave a self-cleavage of 0.01.
U9C C10G G22C G33A showed a self-cleavage of 0.02.
C8U A12U C15U C18A G22U G40C showed a self-cleavage of 0.08.
In the case of C8U A14C C31A U38C C45G, the self-cleavage is reported as 0.11.
For U9C C10A G21A C23A, the self-cleavage was 0.02.
U9A A14C C23U G36U gave a self-cleavage of 0.06.
C8U C18G C37U U38C G40A showed a self-cleavage of 0.01.
Work on C8U U34G C37G yielded a self-cleavage of 0.
U9C C31U G33C G35C gave a self-cleavage of 0.02.
Variant U9A C18A G21A has a self-cleavage of 0.1.
Variant U9A A16U C37U has a self-cleavage of 0.05.
C8U A12U A25G G27A showed a self-cleavage of 0.11.
Variant U9A G17U G21A C23A U28G G29C U38A has a self-cleavage of 0.14.
For U9A G30U C45G, the self-cleavage was 0.77.
Variant U9C A14C C23A has a self-cleavage of 0.04.
For C8U G22U U38G, the self-cleavage was 0.01.
Variant U9A C13A A24G A25C C42U has a self-cleavage of 0.24.
With C8U C10G U20G U28G U38G A39G the self-cleavage was 0.
Variant C8U C13A A25G G30U G35U has a self-cleavage of 0.1.
With U9C A16U C18U G22C A24G G29U the self-cleavage was 0.02.
Work on C8U G29A G40A yielded a self-cleavage of 0.32.
In the case of U9A C13A U20C G44C, the self-cleavage is reported as 0.
With C8U G27U A41C the self-cleavage was 0.13.
In the case of C8U C18A G44U, the self-cleavage is reported as 0.05.
In the case of C8U U9A C46A, the self-cleavage is reported as 0.16.
U9A A14U A26U gave a self-cleavage of 0.17.
U9A C23U G27C U34G G35A gave a self-cleavage of 0.14.
C8U C13G A14G U32C gave a self-cleavage of 0.01.
Work on U9A A14U C15A U34A G36C G40U yielded a self-cleavage of 1.08.
Variant C8U C23U G35A G36A G44A has a self-cleavage of 0.53.
In the case of U9A A16G U20G C23G U28C G30U G35U G36A, the self-cleavage is reported as 0.03.
For U9C A14U G19A C42U, the self-cleavage was 0.05.
In the case of U9A G30U U34A G40U, the self-cleavage is reported as 0.
C8U G21U C23G gave a self-cleavage of 0.12.
In the case of C8U G22U C23G A25G, the self-cleavage is reported as 0.17.
U9C A14C U20C C23A G29U showed a self-cleavage of 0.01.
U9C A12G C13G A41U gave a self-cleavage of 0.01.
In the case of C8U A14U U28A C37A, the self-cleavage is reported as 0.2.
Variant U9A G17U U32G has a self-cleavage of 0.09.
U9C C15U U43A gave a self-cleavage of 0.03.
C8U A12G A26G gave a self-cleavage of 0.28.
For C8U C13A G22A, the self-cleavage was 0.25.
Work on C8U G22U C31G C37A yielded a self-cleavage of 0.04.
With U9C A11U G36U C46A the self-cleavage was 0.01.
Work on C8U G27A C31U A39C yielded a self-cleavage of 0.1.
U9A C15A A41C showed a self-cleavage of 0.07.
For C8U G35U G36C, the self-cleavage was 0.58.
For C8U U9A A12C C31A, the self-cleavage was 0.05.
In the case of C8U C18G G22U, the self-cleavage is reported as 0.23.
In the case of C8U U9A A16G U32G, the self-cleavage is reported as 0.33.
U9A C10G U28A A41U gave a self-cleavage of 0.02.
Work on U9A C10A C45A yielded a self-cleavage of 0.03.
For U9A A11G G17C, the self-cleavage was 0.04.
Work on U9A A16G G22A G35A yielded a self-cleavage of 0.26.
In the case of U9A U20G G33U G35U, the self-cleavage is reported as 0.17.
U9A C15A G30C showed a self-cleavage of 0.08.
U9A G30C U38G gave a self-cleavage of 0.02.
In the case of U9C C13A C37A, the self-cleavage is reported as 0.
U9A G30U C46G gave a self-cleavage of 0.07.
C8U A26G G27C A41C gave a self-cleavage of 0.03.
C8U G35C G40U showed a self-cleavage of 0.04.
For U9C A25C G35U G44C C45U, the self-cleavage was 0.01.
For U9A A12G G27U G35A G44C, the self-cleavage was 0.02.
With U9A A24G U32A the self-cleavage was 0.02.
For U9A G19A A39C G40U C45G, the self-cleavage was 0.02.
With U9A U28A G40C the self-cleavage was 0.03.
C8U U9G U43C gave a self-cleavage of 0.03.
For C8U G27C U28A G30U, the self-cleavage was 0.06.
U9C A26U U38C C42G gave a self-cleavage of 0.01.
C8U U9C G21U gave a self-cleavage of 0.06.
In the case of C8U G22U A41C, the self-cleavage is reported as 0.26.
In the case of U9C A24C U28C, the self-cleavage is reported as 0.01.
Work on C8U G22C G30C G36C yielded a self-cleavage of 0.3.
In the case of C8U C10A U34A, the self-cleavage is reported as 0.08.
For C8U C23U U34G G35C G44C, the self-cleavage was 0.03.
In the case of C8U G29U C46A, the self-cleavage is reported as 0.14.
C8U G27A C37A G40U showed a self-cleavage of 0.2.
Work on C8U A16G A41C yielded a self-cleavage of 0.03.
U9C C10A A11G C18A G22C C37G C45A showed a self-cleavage of 0.
U9C C10U C15A C18U gave a self-cleavage of 0.02.
C8U G17C C18U U20C C31A U32G gave a self-cleavage of 0.07.
U9A C18U C37A showed a self-cleavage of 0.21.
For C8U G17A A25C C42U, the self-cleavage was 0.05.
Variant U9C C18A G19U has a self-cleavage of 0.1.
C8U G27C C31G showed a self-cleavage of 0.09.
Work on C8U A26U U34C yielded a self-cleavage of 0.11.
Work on C8U C13A U34G yielded a self-cleavage of 0.85.
For C8U U9G A11C A12U C15U, the self-cleavage was 0.01.
For C8U G17C C42U U43A, the self-cleavage was 0.23.
Variant C8U G22A G33A G40C has a self-cleavage of 0.
C8U U20C A24C G29U U34C C37G gave a self-cleavage of 0.01.
Variant C8U A26C C31U has a self-cleavage of 0.1.
For U9A U38G C42G, the self-cleavage was 0.03.
Variant C8U U20G G22A has a self-cleavage of 0.07.
With U9A C31A G40C the self-cleavage was 0.04.
U9A G22A G27A showed a self-cleavage of 0.02.
Work on U9C C13A G30A yielded a self-cleavage of 0.03.
U9A U20C A39C gave a self-cleavage of 0.02.
Work on C8U A25C A41G yielded a self-cleavage of 0.44.
Variant C8U G27C G30C U32G G33A has a self-cleavage of 0.16.
Variant U9C A12C C23A U32G A39U has a self-cleavage of 0.01.
For U9C C18G G21U U38C, the self-cleavage was 0.03.
C8U C10A C13G C18A A25C gave a self-cleavage of 0.02.
With C8U C37U A41U the self-cleavage was 0.5.
Work on U9A A16U C23A A25G C45A yielded a self-cleavage of 0.05.
With C8U C10A A24G C37G the self-cleavage was 0.08.
For U9A A11U C13U A24C U28A, the self-cleavage was 0.07.
C8U C10U G17C A25C G33A C45A showed a self-cleavage of 0.06.
With U9C C10U A12C U28G U34G G35A the self-cleavage was 0.02.
Work on C8U U9A C13U A14U G19A U28A U32C C46G yielded a self-cleavage of 0.46.
U9C A12U U20C A41U gave a self-cleavage of 0.01.
Work on C8U C10U C13U C15G yielded a self-cleavage of 0.13.
In the case of C8U A24C G33A G44A, the self-cleavage is reported as 0.51.
Work on C8U G17U U34A yielded a self-cleavage of 0.42.
In the case of C8U G19A A26U G44C, the self-cleavage is reported as 0.11.
C8U G27C C31U G35U gave a self-cleavage of 0.05.
C8U A12G C23U C45U showed a self-cleavage of 0.07.
U9A U20G C31U gave a self-cleavage of 0.13.
Variant U9A A24U G30U has a self-cleavage of 0.08.

— the RNAGym collection of RNA variant scans (doi:10.7554/elife.90254)
